From PMC4336329 (PLoS ONE, 2015) come the findings set out here.

SMILES strings stand for the structures. In all, about 310,000 compounds went through this assay and about 2,200 (0.71%) showed an effect of 50% or more. Effects have a minus sign here. The list shows a part of the results.

human ether-à-go-go-related gene (hERG) potassium channel, sequence (Q12809 whole entry, looked up): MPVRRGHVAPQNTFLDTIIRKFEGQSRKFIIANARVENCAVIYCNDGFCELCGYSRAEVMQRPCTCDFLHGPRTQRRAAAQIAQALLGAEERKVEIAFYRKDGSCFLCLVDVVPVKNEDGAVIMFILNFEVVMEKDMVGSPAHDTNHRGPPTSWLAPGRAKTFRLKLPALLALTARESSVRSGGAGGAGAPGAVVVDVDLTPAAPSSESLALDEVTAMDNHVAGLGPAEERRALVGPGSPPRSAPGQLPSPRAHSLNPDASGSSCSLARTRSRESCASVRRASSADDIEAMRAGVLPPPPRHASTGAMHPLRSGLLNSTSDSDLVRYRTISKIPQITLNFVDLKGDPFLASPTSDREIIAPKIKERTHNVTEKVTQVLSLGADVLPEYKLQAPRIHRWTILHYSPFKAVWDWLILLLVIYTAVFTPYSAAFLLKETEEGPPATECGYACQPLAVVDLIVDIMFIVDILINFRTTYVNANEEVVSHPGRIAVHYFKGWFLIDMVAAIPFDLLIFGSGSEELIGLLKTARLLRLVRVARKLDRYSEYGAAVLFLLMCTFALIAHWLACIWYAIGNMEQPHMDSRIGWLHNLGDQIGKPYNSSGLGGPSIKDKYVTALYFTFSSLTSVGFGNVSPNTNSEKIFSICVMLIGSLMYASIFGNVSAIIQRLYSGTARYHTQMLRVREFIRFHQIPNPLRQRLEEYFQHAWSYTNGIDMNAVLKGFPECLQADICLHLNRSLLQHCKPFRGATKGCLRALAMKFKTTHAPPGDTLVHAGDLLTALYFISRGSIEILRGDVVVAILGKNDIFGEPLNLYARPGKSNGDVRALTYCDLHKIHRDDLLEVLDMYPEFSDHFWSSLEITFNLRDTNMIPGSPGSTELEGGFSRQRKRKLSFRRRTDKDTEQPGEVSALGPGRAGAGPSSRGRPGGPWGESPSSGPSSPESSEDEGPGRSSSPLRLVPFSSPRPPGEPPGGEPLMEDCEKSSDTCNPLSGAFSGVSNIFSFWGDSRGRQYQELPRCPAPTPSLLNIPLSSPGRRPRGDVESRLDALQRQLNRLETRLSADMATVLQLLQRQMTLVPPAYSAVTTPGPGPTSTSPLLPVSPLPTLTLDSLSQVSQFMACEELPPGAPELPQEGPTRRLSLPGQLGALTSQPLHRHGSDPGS

The assay has as its target human ether-à-go-go-related gene (hERG) potassium channel (human, UniProt Q12809). Nature of the assay: primary screen, population patch clamp on CHO cells stably expressing hERG.
As for `CCOC(=O)N1CCN(C(=O)C2CC(c3cc(OC)ccc3OC)=NO2)CC1` (stereo not shown), the “hERG current change (%, negative = inhibition) at 1uM” value is given as -4.89%.

As for `CCOc1ccc(NC(=O)c2cn(-c3ccc(OCC)cc3)c(=O)c3cc(OC)c(OC)cc23)cc1`, the “hERG current change (%, negative = inhibition) at 1uM” value worked out at 5.61%.

For `Cc1cccc(C)c1NC(=S)N(CCN(C)C)C(C)c1cccnc1` (stereo not shown), the “hERG current change (%, negative = inhibition) at 1uM” value came to 6.31%.

For the compound `COc1ccc(C(NC(N)=O)c2ccccc2)cc1` (stereo not shown), the “hERG current change (%, negative = inhibition) at 1uM” value is recorded as 14.7%.

In the case of `O=C(Cc1ccccc1F)NCC(=O)Nc1ccccc1Br`, the “hERG current change (%, negative = inhibition) at 1uM” value was found to be 11.2%.

As to `O=C(CC(Nc1ccc(Cl)cc1)C(=O)O)c1ccccc1` (stereo not shown), the “hERG current change (%, negative = inhibition) at 1uM” value came out at 9.1%.

On to `COc1ccc(N=C2SC(CC(=O)Nc3ccccc3)C(=O)N2Cc2ccco2)cc1` (stereo not shown), for which the “hERG current change (%, negative = inhibition) at 1uM” value was determined as 14.7%.

With `Cc1ccc(C(C(=O)NC2CCCC2)N(C(=O)c2csnn2)c2ccccc2)o1` (stereo not shown), the “hERG current change (%, negative = inhibition) at 1uM” value is 8.97%.

For `O=C(C1=C(O)C(=O)N(CCN2CCOCC2)C1c1ccncc1)c1ccco1` (stereo not shown), the “hERG current change (%, negative = inhibition) at 1uM” value came to 5.52%.

`N#CCC(=O)Nc1ccc(C(=O)OCc2ccccc2Oc2ccccc2)cc1`: the “hERG current change (%, negative = inhibition) at 1uM” value is 14.9%.

Regarding `C[C@H](NS(=O)(=O)c1ccc(Cl)cc1)C(=O)OCC(=O)c1ccc[nH]1`, the “hERG current change (%, negative = inhibition) at 1uM” value was 1.58%.

As for `O=C(N/N=C/c1cccs1)c1ccc2ccccc2c1`, the “hERG current change (%, negative = inhibition) at 1uM” value amounted to 14%.

Take `NS(=O)(=O)c1ccc(NC(=O)CN2CCc3ccccc32)cc1`: the “hERG current change (%, negative = inhibition) at 1uM” value is reported as 10.9%.

Regarding `CCNCCNc1ccc(Cl)cc1[N+](=O)[O-].Cl`, the “hERG current change (%, negative = inhibition) at 1uM” value was 5.74%.

On to `Cl.c1ccc(Nc2nc(NCC3CCCO3)c3ccccc3n2)cc1` (stereo not shown), for which the “hERG current change (%, negative = inhibition) at 1uM” value turned out to be 3.9%.

For `CCC(CC)C(=O)c1c[nH]c(C(=O)NCc2cccs2)c1`, the “hERG current change (%, negative = inhibition) at 1uM” value was 16.4%.

`Cc1oc(-c2ccccc2Cl)nc1CS(=O)CC(=O)NCc1ccco1` (stereo not shown): the “hERG current change (%, negative = inhibition) at 1uM” value is reported as 8.58%.

Consider `CCNc1nc(NC(C)(C)C)nc(N(C#N)CC)n1`, for which the “hERG current change (%, negative = inhibition) at 1uM” value is listed as -20.9%.

For `CCCc1cc(=O)[nH]c(SCC(=O)c2c(N)n(C)c(=O)n(C)c2=O)n1`, the “hERG current change (%, negative = inhibition) at 1uM” value was found to be 8.44%.

`CCOc1ccc(N=C2NC(=O)S/C2=C\c2ccc(OC)cc2)cc1`: the “hERG current change (%, negative = inhibition) at 1uM” value is reported as 5.36%.

Take `CN=C1c2cc3c(Br)c(OC)ccc3n2CCN1C.Cl`: the “hERG current change (%, negative = inhibition) at 1uM” value is -33.6%.

For `COc1ccc(OC)c2c1sc(=NC(=O)C(C)C)n2C`, the “hERG current change (%, negative = inhibition) at 1uM” value came out at 14%.

Take `O=C(CSc1nccn1-c1cccc(Cl)c1)Nc1ccc2c(c1)OCCO2`: the “hERG current change (%, negative = inhibition) at 1uM” value is listed as 1.39%.

Consider `COc1cc(C(=O)NCCSc2ccccc2)cc(OC)c1OC`, for which the “hERG current change (%, negative = inhibition) at 1uM” value amounted to 13.6%.

As to `O=C(CNc1ccc(Cl)cc1)c1ccc(Br)cc1`, the “hERG current change (%, negative = inhibition) at 1uM” value came to 3.51%.

In the case of `CSc1ccc(S(=O)(=O)NCC(=O)OC2CCOC2=O)cc1[N+](=O)[O-]` (stereo not shown), the “hERG current change (%, negative = inhibition) at 1uM” value was found to be 11.3%.

Take `O=C(CCC1CCCCC1)NCCS(=O)(=O)N1CCN(c2ccccc2F)CC1`: the “hERG current change (%, negative = inhibition) at 1uM” value is reported as 14.1%.

For the compound `CC(C)C[C@H](NC(=O)OC(C)(C)C)c1nnc(SCC(=O)Nc2ccc(Br)cc2)o1`, the “hERG current change (%, negative = inhibition) at 1uM” value is on record as -6.98%.

Take `COC(=O)c1cc(S(=O)(=O)N(Cc2ccccc2)C(C)(C)C)c[nH]1`: the “hERG current change (%, negative = inhibition) at 1uM” value is recorded as 3.64%.

For the compound `CCn1c(SCC(=O)NC2CCCCC2)nc2ccccc2c1=O`, the “hERG current change (%, negative = inhibition) at 1uM” value stood at 2.57%.

On to `CCC(=O)Nc1ccc2nc(C3CC3)n(Cc3ccc(C(C)(C)C)cc3)c(=O)c2c1`, for which the “hERG current change (%, negative = inhibition) at 1uM” value is reported as 12.8%.

For `CCN1C(=NCCc2ccccn2)N[C@@H](c2cccc(F)c2)C(C(=O)OC)=C1C`, the “hERG current change (%, negative = inhibition) at 1uM” value was -30%.

In the case of `Cc1ccc(-c2cc(C(F)F)n3ncc(C(=O)N4CCCCC4c4cccnc4)c3n2)cc1` (stereo not shown), the “hERG current change (%, negative = inhibition) at 1uM” value stood at 4.3%.

With `Cc1ccc(C)n1NC(=O)c1ccc(Cl)cc1`, the “hERG current change (%, negative = inhibition) at 1uM” value is on record as 1.64%.

In the case of `CC(C)NC(=O)/C=C/C(=O)O`, the “hERG current change (%, negative = inhibition) at 1uM” value turned out to be 11%.

`CCN1CCN(CC(=O)Nc2sc3c(c2C#N)CCC3)CC1`: the “hERG current change (%, negative = inhibition) at 1uM” value was found to be 9.36%.

For `Cc1nnsc1C(=O)NNC(=O)c1cccc2ccccc12`, the “hERG current change (%, negative = inhibition) at 1uM” value is 9.5%.

As to `CCOc1ccccc1Nc1ccc(C(=O)O)cc1N`, the “hERG current change (%, negative = inhibition) at 1uM” value was found to be 3.45%.

`Nn1c(-c2cccc(Br)c2)n[nH]c1=S`: the “hERG current change (%, negative = inhibition) at 1uM” value was determined as 12.3%.

With `CCSc1nnc(NC(=O)/C=C/c2ccc3c(c2)OCO3)s1`, the “hERG current change (%, negative = inhibition) at 1uM” value is recorded as 17.1%.

In the case of `Cc1nc(NC(=O)c2ccc(Cl)cc2)nc2cc3c(cc12)OCO3`, the “hERG current change (%, negative = inhibition) at 1uM” value was determined as 9.92%.

On to `Cn1c(=O)c2c([nH]c(OCc3ccc(Cl)cc3Cl)[n+]2Cc2ccc(F)cc2)n(C)c1=O`, for which the “hERG current change (%, negative = inhibition) at 1uM” value turned out to be 6.03%.

On to `CC(Oc1ccc(F)cc1)C(=O)NN` (stereo not shown), for which the “hERG current change (%, negative = inhibition) at 1uM” value worked out at 1.52%.

Turning to `CCC1CCCCN1CC(=O)c1ccc(OC(F)F)cc1` (stereo not shown), the “hERG current change (%, negative = inhibition) at 1uM” value was -80.2%.

Regarding `CCCCn1c(=O)c(C(=O)Nc2ccccc2N)c(O)c2ccccc21`, the “hERG current change (%, negative = inhibition) at 1uM” value is 16%.

Consider `Cn1nc(C(F)(F)F)cc1-c1ccc(S(N)(=O)=O)s1`, for which the “hERG current change (%, negative = inhibition) at 1uM” value was 13.1%.

`CCOC(=O)CSc1nc(C)c(C(C)=O)cc1C#N`: the “hERG current change (%, negative = inhibition) at 1uM” value is -6.78%.

Consider `Clc1cccc(CN2CCc3c([nH]c4ccccc34)C2)c1Cl`, for which the “hERG current change (%, negative = inhibition) at 1uM” value is listed as 6.09%.

For `O=C(COc1ccc(/C=N/NS(=O)(=O)c2ccccc2)cc1)NCCc1ccccc1`, the “hERG current change (%, negative = inhibition) at 1uM” value amounted to 15.6%.

As to `CCOc1ccc(CCNC(=O)CS(=O)(=O)Cc2nc(-c3cccc(OC)c3)oc2C)cc1`, the “hERG current change (%, negative = inhibition) at 1uM” value was 8.47%.

Regarding `CC(=O)Nc1ccc(NC(=O)c2ccccc2Sc2ccc([N+](=O)[O-])cc2Cl)cc1`, the “hERG current change (%, negative = inhibition) at 1uM” value came out at 6.31%.

Take `COc1cccc(C(=O)COC(=O)c2cccs2)c1`: the “hERG current change (%, negative = inhibition) at 1uM” value turned out to be 16.7%.

Turning to `O=C(Cn1ncc2ccccc21)N1CCC2(CC1)OCCO2`, the “hERG current change (%, negative = inhibition) at 1uM” value is reported as 9.67%.

In the case of `Cc1ccc(CCNC(=O)c2nnn(-c3cccc(C)c3)c2N)cc1`, the “hERG current change (%, negative = inhibition) at 1uM” value is 2.44%.

Turning to `CC1(C)C2CC=C(/C=N/NC(=O)c3ccccc3Br)C1C2` (stereo not shown), the “hERG current change (%, negative = inhibition) at 1uM” value amounted to 4.48%.

On to `O=C(NCc1ccccc1)C1=C[C@@H](c2ccc(C(F)(F)F)cc2)C[C@@H](OCCCCO)O1`, for which the “hERG current change (%, negative = inhibition) at 1uM” value is reported as -0.78%.

With `CN=C(Nc1cccc(OC)c1)SC1CC(=O)N(c2ccc(C(=O)O)cc2)C1=O` (stereo not shown), the “hERG current change (%, negative = inhibition) at 1uM” value is given as 11%.

Consider `CN1CCc2c(sc(NC(=O)c3ccc(C(=O)c4ccccc4)cc3)c2C(N)=O)C1.Cl`, for which the “hERG current change (%, negative = inhibition) at 1uM” value was 13.2%.
